# Assay results from PubChem BioAssay AID686971 (National Center for Advancing Translational Sciences (NCATS), 2013).
# Screen size: about 360,000 compounds; about 7,500 (2.1%) were called active. This list was built around the results that the source calls inconclusive (neither active nor inactive); the mix of calls is not that of the screen. The call rests on the fitted dose curve; in most records, active means well fitted cell-killing curve with a large enough effect; inconclusive means small, poorly fitted or top-dose-only effect, or effect the other way, or another doubt; inactive means no such curve, though single readings can be large or run the other way. Potencies of inconclusive entries are left out as doubtful fits.
# Experiment: qHTS for induction of synthetic lethality in tumor cells producing 2HG: qHTS for the HT-1080-IDH1KD cell line;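 on activity, negative = toxicity: 0% = DMSO wells and -100% = cell-free medium wells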
# Settings: HT-1080 IDH1 knockdown viability, ATP luminescence, 48 h; activity, negative = toxicity: at 46.1 µM (top of the series) unless noted
# Method in brief: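 Using the IDH1-knockdown HT-1080 line run in the same batch and compound series as the NT line, viability after 48 h at 37 °C was determined by CellTiter-Glo luminescence and expressed as % activity.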
# Potency means the concentration at half of the fitted maximal effect; tags describe the fitted curve by direction and shape.
Structure (SMILES),Potency,"activity, negative = toxicity"
CSc1ccc(S(=O)(=O)N2CCC(C(=O)NCCCn3ccnc3)CC2)cc1,"inconclusive [cytotoxic, single point]",–
CC1(C)COC(/C=C/c2cccc([N+](=O)[O-])c2)=N1,"inconclusive [cytotoxic, partial curve, poor fit]",–
COC(=O)[C@]12CCCCC=C1N(Cc1cccc3ccccc13)C(=O)[C@H](CC(=O)N1CCSCC1)C2,"inconclusive [cytotoxic, single point]",–
O=c1[nH]c(C2CCCN(S(=O)(=O)c3ccccc3F)C2)nc2c1nnn2Cc1ccccc1Cl (stereo unspecified),"inconclusive [cytotoxic, partial curve]",–
CCn1c2ccccc2c2cc(/C=N/NC(=O)c3ccccc3)ccc21,"inconclusive [cytotoxic, single point]",–
CC(C)COc1ccc(C(=O)Nc2ccc(NC(=O)c3ccco3)c(Cl)c2)cc1,active: 14.6 µM,–
CC(=O)c1cn(CC(=O)Nc2ccccc2Cl)c2ccccc12,"inconclusive [cytotoxic, single point]",–
Cc1sc2nc(COC(=O)c3ccc(N4CCCC4)c([N+](=O)[O-])c3)[nH]c(=O)c2c1C,–,inactive: 20.5%
Cc1cccc(NC(=O)c2ccc([N+](=O)[O-])o2)c1,"inconclusive [cytotoxic, single point]",–
O=C(NCCn1ccc2ccccc21)c1ccc(S(=O)(=O)N2CCCCC2)cc1,–,inactive: -11.5%
COc1ccccc1NC(=O)Nc1nnc(Cc2ccc(F)cc2)s1,"inconclusive [cytotoxic, partial curve]",–
O=C1CC(Sc2nnnn2-c2ccccc2)C(=O)N1c1cccc(Cl)c1 (stereo unspecified),"inconclusive [cytotoxic, single point]",–
Cc1noc(C)c1COc1ccc(CC(=O)NCc2ccccc2)cc1,active: 1.16 µM,–
CN(CC(=O)Nc1cccc(S(=O)(=O)N2CCCC2)c1)CC(=O)Nc1ccc(Cl)c(C(F)(F)F)c1,active: 18.4 µM,–
CC1(C(=O)NS(=O)(=O)c2ccc3c(c2)CCO3)CCN1C(=O)CCC1CCCC1 (stereo unspecified),"inconclusive [rising, single point]",–
Cc1ccc(C#N)c(SCc2ccccc2[N+](=O)[O-])n1,–,inactive: -8.85%
Nc1ccc2c(c1)[nH]c(=O)c1ccccc12,"inconclusive [cytotoxic, single point]",–
COCCNc1nc(-c2ccccc2CO)c2sc(-c3ccccc3)cc2n1,active: 0.92 µM,–
COc1ccc(NC(=O)c2cc3c(Cl)nc4ccccc4c3s2)cc1OC,"inconclusive [cytotoxic, single point]",–
CC1Oc2ccccc2C=C1/C=N/NC(=O)c1ccccc1O (stereo unspecified),"inconclusive [cytotoxic, single point]",–
Cn1cccc1-c1cc(C(=O)N/N=C/c2ccc(Cl)cc2)[nH]n1,"inconclusive [cytotoxic, partial curve]",–
O=C(CSc1ncnc2c1oc1ccccc12)Nc1nc2ccccc2s1,"inconclusive [cytotoxic, single point]",–
COc1ccc(C(=S)N2CCOCC2)cc1OC(=O)c1ccc([N+](=O)[O-])cc1[N+](=O)[O-],"inconclusive [cytotoxic, single point]",–
COC(=O)c1nnn(-c2nonc2N)c1COc1ccc(C=O)cc1OC,"inconclusive [cytotoxic, single point]",–

Structure (SMILES),Potency,"activity, negative = toxicity"
Cc1ccc(C(=O)Nc2ncc(Cc3ccc(F)cc3)s2)o1,"inconclusive [cytotoxic, full curve]",–
COc1ccc(C(C)=O)cc1COc1cccnc1[N+](=O)[O-],"inconclusive [cytotoxic, partial curve]",–
CC(C)(C)c1ccc(/C=C/C(=O)Nc2ccncc2)cc1,"inconclusive [cytotoxic, single point]",–
CC(C)N1CCN(Cc2ccc3c(c2)Cc2ccccc2-3)CC1CCO (stereo unspecified),"inconclusive [cytotoxic, single point]",–
COc1ccc(/C=N/NC(=O)c2ccc(O)cc2)cc1CN1CCCc2ccccc21,"inconclusive [cytotoxic, partial curve]",–
CCC(C)NCCOCCOc1ccc(Cl)cc1Br (stereo unspecified),"inconclusive [cytotoxic, single point]",–
COc1ccc2c(c1)n([O-])c1c([n+]2=O)CCC1,–,inactive: 9.5%
C/C(=N\NC(=O)c1ccncc1)c1cccc(NC(=O)c2ccc(C(C)(C)C)cc2)c1,"inconclusive [cytotoxic, single point]",–
COc1cc(NC(=S)NN2CCN(C)CC2)cc(OC)c1OC,"inconclusive [rising, single point]",–
O=C(CSC1=NCCN1)Nc1cccc(C(F)(F)F)c1,active: 25.9 µM,–
Cc1ccc(NC(=O)c2cc(-c3ccc(C)o3)nc3ccccc23)nc1,"inconclusive [cytotoxic, single point]",–
N#Cc1cc2c(=O)n3ccccc3nc2n(CCCn2ccnc2)c1=N,–,inactive: -0.754%
OC(CN1c2ccccc2Sc2ccccc21)Cn1nnc2ccccc21 (stereo unspecified),"inconclusive [cytotoxic, single point]",–
COC(CCN(C)C)(c1ccccc1)c1ccccc1,"inconclusive [cytotoxic, single point]",–
O=C1CCC[C@@H]2[C@H](Cc3ccccc3)[C@@H](O)C[C@@H]3CCN1[C@@H]32,–,inactive: -0.552%
CCC1Oc2ccccc2N(CC(=O)NCCN2CCc3ccccc3C2)C1=O (stereo unspecified),"inconclusive [cytotoxic, single point]",–
COc1ccc(CNC(=S)NCc2ccc(Cl)cc2)cc1OC,–,inactive: -20.6%
Cc1ccc(-n2nc3c(N4CCC(C(=O)N5CCN(C)CC5)CC4)nnc(C)c3c2C)cc1,–,inactive: -23.8%
CC(C)c1ccc(O)c(NC(=S)NC(=O)c2cccnc2)c1,"inconclusive [cytotoxic, partial curve]",–
COCc1[nH]nc2c1C(c1ccc(F)cc1F)C(C#N)=C(N)O2 (stereo unspecified),–,inactive: 0.698%
CC1(C(=O)NS(=O)(=O)c2cccc(F)c2)CCN1C(=O)Cc1ccccc1 (stereo unspecified),–,inactive: 18.9%
O=C(Nc1nc2nc(-c3ccccc3)cc(-c3ccccc3)n2n1)c1ccco1,active: 25.9 µM,–
O=S(=O)(c1ccc(Br)s1)N1CCN(c2ccnc3cc(Cl)ccc23)CC1,"inconclusive [cytotoxic, single point]",–
CCOC(=O)C1=C(O)/C(=C/c2ccc(OCC(=O)O)c(OCC)c2)SC1=Nc1ccc(C)cc1,"inconclusive [cytotoxic, partial curve]",–

Structure (SMILES),Potency,"activity, negative = toxicity"
COC1C=CC=C(C)C(=O)NC2=CC(=O)C(N)=C(CC(C)CC(OC)C(O)C(C)C=C(C)C1OC(N)=O)C2=O (stereo unspecified),active: 0.0411 µM,–
CCN(CC)S(=O)(=O)c1cccc(NC(=O)COc2ncnc3sccc23)c1,–,inactive: -15.6%
O=C(NCc1ccccc1)C(c1ccc(F)cc1)N1CCN(c2ccccc2F)CC1 (stereo unspecified),"inconclusive [cytotoxic, single point]",–
C#CC[N+](C)(C)CCCCCCCCCC,active: 11.6 µM,–
CC1(C(=O)NCC2CCCCC2)CCN1C(=O)Cc1ccc(-c2ccccc2)cc1 (stereo unspecified),"inconclusive [cytotoxic, single point]",–
CCCCCCCCN1C(=O)[C@H](CC(=O)N2CCSCC2)C[C@@]2(C(=O)OC)CCCCC=C12,"inconclusive [cytotoxic, single point]",–
CC(=O)Nc1ccc(-c2ccnc3c2CC(C)(C(=O)NCc2ccco2)O3)cc1 (stereo unspecified),active: 2.59 µM,–
CCOC(=O)C1=C(c2ccccc2)NC(=O)NC1c1cc(OC)c(OC)c(OC)c1 (stereo unspecified),–,inactive: 4.35%
O=C(NC1CCN(C(=O)N2c3ccccc3Sc3ccccc32)CC1)c1ccccc1Cl,"inconclusive [cytotoxic, single point]",–
COc1ccc(CN2CCNC(=O)C2CC(=O)NC2CCCCC2)c(OC)c1 (stereo unspecified),–,inactive: 23.3%
COc1ccc(CCNC(=O)C(=O)NCC2OCCN2S(=O)(=O)c2ccccc2)cc1OC (stereo unspecified),–,inactive: -2.43%
Cc1[nH]c2c(Br)cccc2c1[C@H]1[C@@H](CC#N)C1(C)C,"inconclusive [cytotoxic, single point]",–
COc1cc(C(=S)N2CCOCC2)ccc1OC(=O)c1ccccc1C,–,inactive: -5.21%
O=C(Nc1ccccc1F)N1CCc2ccccc2C1,–,inactive: 10.9%
O=C(c1ccccc1)c1cc([N+](=O)[O-])ccc1N1CCOCC1,active: 0.731 µM,–
CCCC(=O)Nc1nc2ccc(NC(=O)c3c(F)c(F)c(OC)c(F)c3F)cc2s1,active: 0.651 µM,–
CCN(CC)CCCNC(=O)c1c(O)c2cc(F)cc3c2n(c1=O)C(C)CC3 (stereo unspecified),"inconclusive [cytotoxic, single point]",–
CCOC(=O)C1CCN(C(=O)c2ccccc2NC(=O)c2ccc(Cl)cc2)CC1,–,inactive: -2.43%
Cc1ccc(C(NC(=O)C2CCCCC2)c2c(O)ccc3ccccc23)cc1 (stereo unspecified),"inconclusive [cytotoxic, single point]",–
CC(C)Cn1c(SCC(=O)NC(=O)NC2CCCC2)nc2ccccc21,"inconclusive [cytotoxic, partial curve, poor fit]",–
CCOc1ncccc1C(=O)OCc1ccc(C(=O)OC)cc1,"inconclusive [cytotoxic, partial curve]",–
COC(=O)C1=CN(c2ccc(F)cc2)C(N)=C(C#N)C1c1cccc(F)c1 (stereo unspecified),active: 23.1 µM,–
O=C(CN1CCC(C(=O)c2ccc3c(c2)OCCO3)CC1)Nc1ccccc1F,"inconclusive [cytotoxic, partial curve]",–
